We go through 86 sequences from the supplement of paper PMC3334620.

The full ranking holds about 33,000 sequences; the median of “E-score (-0.5 to 0.5)” is about -0.043, and the highest 2% start at about 0.37. This is one part of the list.

For the experiment, the target named is T1, Upc2 (UniProt Q12151).
T1 sequence: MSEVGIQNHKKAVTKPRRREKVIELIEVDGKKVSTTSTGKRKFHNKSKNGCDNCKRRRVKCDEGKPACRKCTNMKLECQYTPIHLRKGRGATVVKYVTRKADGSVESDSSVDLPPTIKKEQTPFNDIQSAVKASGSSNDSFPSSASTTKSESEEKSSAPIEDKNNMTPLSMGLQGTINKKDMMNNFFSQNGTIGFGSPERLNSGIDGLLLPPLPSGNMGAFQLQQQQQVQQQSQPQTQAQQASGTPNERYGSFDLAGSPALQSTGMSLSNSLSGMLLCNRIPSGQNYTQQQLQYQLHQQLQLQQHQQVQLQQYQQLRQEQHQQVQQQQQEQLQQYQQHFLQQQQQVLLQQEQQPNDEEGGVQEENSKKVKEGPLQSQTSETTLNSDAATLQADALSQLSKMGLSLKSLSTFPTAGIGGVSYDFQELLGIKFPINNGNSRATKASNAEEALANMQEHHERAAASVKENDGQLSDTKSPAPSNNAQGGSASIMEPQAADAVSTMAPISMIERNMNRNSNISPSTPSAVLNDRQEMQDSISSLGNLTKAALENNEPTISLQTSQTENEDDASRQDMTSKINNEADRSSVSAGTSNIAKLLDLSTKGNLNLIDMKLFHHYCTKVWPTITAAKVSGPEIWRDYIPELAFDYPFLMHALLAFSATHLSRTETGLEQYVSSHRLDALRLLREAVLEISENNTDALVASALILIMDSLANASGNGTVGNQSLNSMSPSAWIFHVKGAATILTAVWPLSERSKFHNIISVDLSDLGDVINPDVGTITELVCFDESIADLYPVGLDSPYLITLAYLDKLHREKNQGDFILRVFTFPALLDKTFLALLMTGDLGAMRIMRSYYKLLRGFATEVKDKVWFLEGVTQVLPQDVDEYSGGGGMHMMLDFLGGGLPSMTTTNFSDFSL
In words: PBM E-score (8-mer binding enrichment) (E-score (-0.5 to 0.5)); higher = stronger / more preferred TF binding; most listed sequences are background and not binding sites. The following applies: protein concentration: 200 nM; construct: GST-full length. On the procedure:
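Universal 'all 10-mer' protein binding microarrays (Agilent AMADID 015681) probed with GST-tagged S. cerevisiae TFs (full-length or DBD) made by in vitro transcription/translation (PURExpress), about 100-200 nM. Bound TF was detected with fluorescent anti-GST. Each ungapped 8-mer (which stands for itself and its reverse complement) is scored by the PBM enrichment score (E-score), a modified Wilcoxon-Mann-Whitney statistic from -0.5 to +0.5, computed with the Universal PBM Analysis Suite. Scale: above 0.35 generally sequence-specific binding.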
In the case of CTTCGCAA, the “PBM E-score” value is 0.055.

Consider GGGCCATA, for which the “PBM E-score” value was -0.0163.

For TATAGCGA, the “PBM E-score” value worked out at 0.204.

Regarding AAACATGA, the “PBM E-score” value is -0.0547.

For the sequence TCTCTTAA, the “PBM E-score” value is 0.197.

With ACCGGTAG, the “PBM E-score” value was -0.109.

For the sequence ACGTTTGA, the “PBM E-score” value was 0.244.

As for CTTGGCAC, the “PBM E-score” value was -0.209.

Consider GCCAGAAC, for which the “PBM E-score” value is -0.081.

As for CGGGTAGC, the “PBM E-score” value was -0.0833.

Take ATATAGCC: the “PBM E-score” value was -0.146.

In the case of CTTGGCCA, the “PBM E-score” value is -0.261.

With ATCTTCCA, the “PBM E-score” value was -0.214.

Turning to CGGTTGTC, the “PBM E-score” value came out at 0.107.

For GCGACTAA, the “PBM E-score” value is 0.163.

As to ATATCTAC, the “PBM E-score” value was 0.0208.

Regarding GCCTGTAA, the “PBM E-score” value was -0.249.

On to AGCTCGAC, for which the “PBM E-score” value was -0.017.

For CCCAGGCC, the “PBM E-score” value is -0.226.

With ATTACCTA, the “PBM E-score” value is -0.0593.

Take AGTTATAG: the “PBM E-score” value is -0.202.

On to GCCCAGCA, for which the “PBM E-score” value was -0.0617.

On to AGTGAGAG, for which the “PBM E-score” value was -0.279.

As to CAGAGACG, the “PBM E-score” value was -0.0255.

As for AGATAACC, the “PBM E-score” value is -0.147.

Take ACTACCAA: the “PBM E-score” value was -0.00452.

Regarding ACCGCGGA, the “PBM E-score” value was determined as 0.049.

For the sequence AGCTTTAC, the “PBM E-score” value worked out at 0.192.

As to AGGAAGAA, the “PBM E-score” value was -0.179.

As to GAAAGAAC, the “PBM E-score” value was -0.0116.

Consider ACGGGGAC, for which the “PBM E-score” value was found to be 0.0613.

As for CGTTGACA, the “PBM E-score” value stood at 0.176.

On to AGACTAGG, for which the “PBM E-score” value was -0.0821.

Take ATCTTAGG: the “PBM E-score” value was -0.24.

As for AACCTCGT, the “PBM E-score” value came out at 0.372.

Regarding CCCACAGA, the “PBM E-score” value is -0.13.

Consider GTGGTGGA, for which the “PBM E-score” value stood at 0.0837.

With ATCAGATA, the “PBM E-score” value was -0.0501.

Take CGGATAGA: the “PBM E-score” value was 0.163.

Take CGATTAGA: the “PBM E-score” value was 0.172.

GGTACCTA: the “PBM E-score” value is -0.117.

Regarding GAAAGATA, the “PBM E-score” value was 0.00564.

For GGTGGCCA, the “PBM E-score” value is -0.268.

With AATCCGAC, the “PBM E-score” value worked out at 0.069.

Turning to CGTACTAA, the “PBM E-score” value amounted to 0.297.

Consider AGTGGGCG, for which the “PBM E-score” value was -0.0881.

In the case of CGACTGAA, the “PBM E-score” value is 0.184.

Take CTGTACTC: the “PBM E-score” value is 0.00852.

As for ACCCCCCA, the “PBM E-score” value was -0.26.

With CGCTCCGA, the “PBM E-score” value came to 0.0523.

As for ACAATGGA, the “PBM E-score” value was -0.0209.

Regarding ACGCTTCC, the “PBM E-score” value was -0.0297.

Regarding GACTAAAC, the “PBM E-score” value was found to be 0.116.

As for CAAGCGTG, the “PBM E-score” value is -0.183.

Consider TCTATACA, for which the “PBM E-score” value was 0.0829.

For the sequence AATGGGTA, the “PBM E-score” value was 0.226.

Regarding GCCCCTCC, the “PBM E-score” value was -0.0822.

Turning to CCTGCATA, the “PBM E-score” value was -0.232.

Turning to CCCAGTAC, the “PBM E-score” value was -0.0334.

Take AGGACTTA: the “PBM E-score” value was -0.161.

As to AACGGTAT, the “PBM E-score” value is 0.223.

CGCGGATC: the “PBM E-score” value is -0.113.

As for CGCACAGC, the “PBM E-score” value is -0.0362.

As for AAGGGGGC, the “PBM E-score” value turned out to be 0.0404.

Take AGTGAAGC: the “PBM E-score” value is -0.0908.

As to GGTAAACA, the “PBM E-score” value was determined as 0.111.

Consider AAATCTGG, for which the “PBM E-score” value is 0.114.

AGCTGAAC: the “PBM E-score” value is -0.00145.

On to AGTTCCCC, for which the “PBM E-score” value was -0.191.

Consider AAGTAAGG, for which the “PBM E-score” value was -0.0201.

Consider AAAGCATC, for which the “PBM E-score” value worked out at 0.0386.

Regarding TACTCGAA, the “PBM E-score” value worked out at 0.187.

Consider ATGGGGAA, for which the “PBM E-score” value worked out at 0.0333.

Turning to GTGATCAC, the “PBM E-score” value is -0.221.

With AATCGACC, the “PBM E-score” value is 0.0614.

For GCGACACA, the “PBM E-score” value turned out to be 0.00942.

With CACCAGTC, the “PBM E-score” value is -0.0748.

With ATCGTAGG, the “PBM E-score” value was 0.165.

As for ATATAATG, the “PBM E-score” value is -0.118.

For the sequence ACTGTGGG, the “PBM E-score” value was -0.199.

As to AGATTGCA, the “PBM E-score” value was -0.0673.

CGTAGATA: the “PBM E-score” value came out at 0.201.

Turning to CCGGGCAA, the “PBM E-score” value was -0.105.

Regarding CCCGCGTC, the “PBM E-score” value was -0.0193.

As for GAGTAGCC, the “PBM E-score” value is -0.0894.

Regarding TCCTTTAA, the “PBM E-score” value was -0.00287.
